Measured values from PubChem BioAssay AID493208 (National Center for Advancing Translational Sciences (NCATS), 2011).
The whole screen tested about 44,000 compounds, of which about 340 (0.77%) were called active. About 5% were inconclusive and are not listed. The call rests on the fitted dose curve; in most records, active means well fitted inhibition curve with a large enough effect; inconclusive means small, poorly fitted or top-dose-only effect; inactive means flat fitted curve, though single readings scatter. This is one part of the list.

Assay: Acumen qHTS Assay for Inhibitors of the mTORC1 Signaling Pathway in MEF (Tsc2-/-, p53-/-) Cells: Sytravon; further: nearly all actives have a fitted effect of over 50% in size
Details: phospho-rpS6 immunofluorescence/PI, 24 h; series mostly up to 38.3 µM; activity change, negative = inhibition: at the top concentration
In short: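 Readout is phospho-S6 Alexa 488 signal normalized to PI per well, reported as % active cells with thresholds set from rapamycin (7.5 nM) and DMSO controls. Cells: Tsc2-/-, p53-/- MEFs, 24 hrs compound at 37 C; PI cell number serves as viability.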

Activity change, negative = inhibition, inactive:
COc1ccc(OCc2nnc(-c3ccccc3)o2)cc1 0%
Cc1cc2ccccc2n1CCNC(=O)c1cc(C(F)(F)F)cc(C(F)(F)F)c1 -18%
Cn1nnc2c(N3CCN(c4ccccc4)CC3)ncnc21 0.358%
COCCn1c(SCC(=O)c2ccc(C)cc2C)nc2cc(C(=O)NC3CCCC3)ccc2c1=O 2.02%
CCOc1ccc(N(CC)S(=O)(=O)N2CCCC(C(=O)Nc3cc(Cl)ccc3C)C2)cc1 (stereo not given) -15.5%
CC(C)COc1ccc(C2=NC(c3ccncc3)=Nc3ccc(F)cc3N2)cc1 -1.52%
CC(=O)c1c(C)oc2c(Br)cc(NS(=O)(=O)c3ccc(Br)cc3)cc12 -17.8%
O=C(c1noc2c1CCCCC2)N1CCN(c2cccc(C(F)(F)F)c2)CC1 -4.33%
COc1ccccc1CNc1nc2ccc(Cl)cc2n2cnnc12 -5.5%
CC(C)c1ccc(NC(=O)c2cc(S(=O)(=O)N3CCCCC3)cn2C)cc1 -2.63%
COC(=O)c1cc(NC(=O)c2nn(C)c3c2CSc2ccccc2-3)cc(C(=O)OC)c1 0.573%
CN1CCN(C(=O)Cn2c(-c3cccs3)cc3cc(Cl)ccc32)CC1 -1.15%
Cc1ccc(Cl)cc1N1CCN(C(=O)C2CCN(S(=O)(=O)c3cccc4nonc34)CC2)CC1 -28.3%
Cc1ccccc1OC(=O)CSc1nnc(-c2ccc3c(c2)OCO3)o1 1.28%
CCN(CC)CCNC(=O)c1ccc(CSc2nc3ccncc3n2Cc2cccc(F)c2)cc1 4.64%
CC(C)(C)c1ccc(C(=O)N2CCC(c3nc(-c4ccc(S(=O)(=O)N5CCCC5)cc4)no3)CC2)cc1 5.52%
CCOc1ccc(-c2cc3c(=O)n(Cc4nc(-c5ccc(OC(C)C)cc5)oc4C)ccn3n2)cc1Cl 11.8%
Cc1ccc(-c2n[nH]c3c2C(c2cccc(O)c2)N(c2ccc(C(=O)O)cc2)C3=O)cc1 (stereo not given) -4.45%
O=C(Cn1nc(N2CCN(c3ccccc3)CC2)ccc1=O)Nc1ccc(F)cc1F -9.65%
COc1ccc(CNC(=O)C2CCCN(C(=O)N3CCOc4ccccc43)C2)cc1 (stereo not given) -5.7%
COc1cc(C2SC[C@H]3C(=O)N(c4ccccc4)C(=O)N23)cc(OC)c1OC (stereo not given in full) 2.27%
Cc1ccccc1-c1nc(CN2CCC(C(=O)NCCc3ccccc3)CC2)c(C)o1 1.14%
O=C(CCCn1c(=O)c2ccccc2n(CC(=O)Nc2cccc(C(F)(F)F)c2)c1=O)NCc1ccc2c(c1)OCO2 -1.11%
CCCN(CCC)S(=O)(=O)c1ccc2c(c1)N(CC(=O)NCc1ccc(F)cc1Cl)C(=O)CS2 -3.18%
O=C(NCc1cccn1Cc1ccccc1)Nc1ccc(Br)cc1F -2.2%
O=C(Nc1ccccc1C(=O)OCc1cc(=O)n2ccsc2n1)c1ccc(Cl)cc1 0%
O=C(COCc1cc(-c2ccc(F)cc2)on1)Nc1cccc(Cl)c1Cl 0.0836%
CCCc1cc(=O)[nH]c2nnc(SCC(=O)Nc3ccc(OC)cc3)n12 -9.08%
Cc1ccc(S(=O)(=O)c2nnn3c2nc(NC(C)c2ccccc2)c2sccc23)cc1 (stereo not given) -8.88%
CCOc1ccc(N2CC(NC(=O)c3ccc(S(=O)(=O)N4CCCC4)cc3)CC2=O)cc1 (stereo not given) 0.37%
Cc1ccc(Cl)cc1NC(=O)Nc1nnc(N2CCCC(C)C2)s1 (stereo not given) -3.17%
COc1ccccc1CNC(=O)CCNS(=O)(=O)c1ccc2c(c1)CCCC(=O)N2 2.92%
CCN(CC)S(=O)(=O)c1ccc2c(c1)nc(CN(C)C(=O)Nc1ccc(Cl)cc1)n2C 0%
CCOC(=O)c1c(C)[nH]c(C)c1S(=O)(=O)NCC(=O)NCc1ccc(C)cc1 0.613%
O=C(Cn1c(=O)n(Cc2ccc(Cl)cc2)c(=O)c2cccnc21)Nc1ccccc1C(F)(F)F -12.6%
CN(Cc1ccc(F)cc1)S(=O)(=O)c1nnc(NC(=O)c2ccccc2Br)s1 -9.64%
Cc1ccc(NC(=O)CNC(=O)Cn2c(C)cc3ccccc3c2=O)cc1F 7.41%
Cc1ccc(-n2nc3c(=O)n(CCCC(=O)NCc4ccccc4C)nc(C)c3c2C)cc1 2.41%
Cn1c(=O)oc2cc(S(=O)(=O)N3CCC(C(=O)NCc4ccccc4)CC3)ccc21 -1.62%
CCOC(=O)c1c(C)c(-c2ccccc2)n(CC(=O)NCc2cccc(OC)c2)c1C -11.6%
O=C(NCc1cccn1Cc1ccccc1)Nc1cccc(C(F)(F)F)c1 -3.11%
CCOc1ccccc1C(=O)Nc1ccc(S(=O)(=O)Nc2onc(C)c2C)cc1 3.1%
CC(=O)c1ccc(NC(=O)Cn2cnc3nc4c(cc3c2=O)CC(C)CC4)cc1 (stereo not given) -0.667%
CCOc1cccc(C2c3[nH]c4ccccc4c3CCN2C(=O)c2ccccc2F)c1 (stereo not given) 6.01%
Cc1ccc(F)cc1NC(=O)CCc1c(C)nn(-c2ccc(N3CCCC3)nn2)c1C -5.52%
Cc1cccc(-c2nc3scc(CCNS(=O)(=O)c4c(C)noc4C)n3n2)c1 0.477%
CCCCC(=O)Oc1ccc2oc(-c3ccc(OC)cc3)cc(=O)c2c1 -17.5%
CCOC(=O)c1c(SCC(=O)Nc2nc3ccccc3s2)nc(=O)[nH]c1C -1.99%
CCOC(=O)c1cnc2cc(C(F)(F)F)ccc2c1N1CCN(c2cccc(Cl)c2)CC1 -0.723%
CCOc1cc(CNC(=O)c2ccc(Cn3c(=O)c4cccn4c4cccnc43)cc2)ccc1OC 3.94%
CCN1CCN(Cc2nc3cc(NC(=O)c4cc(OC)c(OC)c(OC)c4)ccc3n2CC)CC1 0%
Cc1ccc(CNC(=O)N2CCC(CN3CCC(C)CC3)CC2)cc1 -4.78%
COc1ccc(S(=O)(=O)c2cn(CC(=O)Nc3cc(C)ccc3C)c3ccccc3c2=O)cc1 -5.48%
COc1ccc(S(=O)(=O)n2nc(-c3ccco3)nc2NCc2ccc(N(C)C)cc2)cc1 -6.46%
CCC1CN(C(=O)NCc2ccc(C)cc2)c2cc(Cl)ccc2O1 (stereo not given) -8.69%
COc1ccc(NC(=O)Cn2cnc3sc(C)c(S(=O)(=O)N4CCN(c5ccccc5OC)CC4)c3c2=O)cc1OC -0.289%
CCc1ccccc1NC(c1nnc(-c2cccc(F)c2)o1)c1ccc(F)cc1Cl (stereo not given) 1.71%
Cc1ccc2scc(N3CCc4ccccc4C3)c(=O)c2c1 0.949%
Cc1ccc(C)c(N2CCN(C(=O)Cn3ncc4c(=O)oc5ccccc5c43)CC2)c1 -5.82%
COc1cc(OC)cc(-c2nc3nc(C)c(CCC(=O)Nc4ccc(C)c(C)c4)c(C)n3n2)c1 1.1%
CCC(C(=O)NCc1ccco1)n1nc(C)c2c(C)n(-c3ccc(C)cc3)nc2c1=O (stereo not given) -4.08%
Cn1c(=O)c2c(-c3cccc(Br)c3)n(C(C)(C)CO)cc2n(C)c1=O -0.292%
COc1cccc(C(=O)N2CCN(CCc3ccncc3)CC2)c1 0.307%
CN(C)c1ccc(CNC(=O)c2cccc(NC(=O)N3CCSc4ncccc43)c2)cc1 -15%
Cc1cccc(C(=O)NCC(=O)OCc2cc(=O)n3nc(CC(C)C)sc3n2)c1 0.753%
Cc1cc2nc(-c3ccc(OCc4ccccc4Cl)cc3)cc(C(F)(F)F)n2n1 -0.931%
COc1ccccc1NC(=O)Cn1c(SCC(=O)N(C)c2ccccc2)nc2ccccc21 6.49%
Cc1ccc(NS(=O)(=O)c2ccc3c(c2)n(C)c(=O)n3C)cc1C 0.512%
O=C1N(Cc2ccccc2)c2ccc(Cl)cc2C1(O)c1c[nH]c2ccccc12 (stereo not given) -24.1%
COc1cccc2c1cc1c(=O)n(CC(=O)N3CCN(c4ccc(Cl)cc4)CC3)nc(C)n12 0.621%
Fc1ccc(Nc2ncnc3onc(-c4cccc(Cl)c4)c23)c(F)c1 -1.8%
Cc1ccc(S(=O)(=O)NC2(C(F)(F)F)NC(=O)N(CCc3ccccc3)C2=O)cc1 (stereo not given) -6.34%
O=C(NCCn1cc(SCc2ccccc2Cl)c2ccccc21)c1cccs1 -1.64%
Cc1cc(C)cc(NC(=O)Cn2cc(S(=O)(=O)NC(C)(C)C)c(S(=O)(=O)NC(C)(C)C)c2)c1 -0.115%
CCOc1ccccc1NC(=O)CSc1nnc2[nH]c(=O)cc(-c3ccccc3)n12 -1.06%
O=C(Nc1ccccc1Cl)C1CCN(c2nc3ccccc3nc2C(F)(F)F)CC1 3.15%
COc1ccc(CNC(=O)CN2C(=O)COc3ccc(S(=O)(=O)Nc4ccccc4)cc32)cc1 -11.8%
CCOC(=O)c1cc2c(=O)n3ccccc3nc2n(C(C)C)c1=NC(=O)c1cc2ccccc2o1 -3.25%
COc1ccc(-n2nc(C(=O)N3CCCC(C)C3)c3c4ccccc4n(C)c3c2=O)cc1 (stereo not given) 2.03%
CCc1ccc(C(=O)c2cn(CC(=O)NC3CCCCC3)c3nc(C)ccc3c2=O)cc1 -5.11%
O=C(c1ccccc1)n1nc(-c2ccccc2)nc1NCc1ccc(F)cc1 -3.11%
O=C(Nc1ccc(F)c(F)c1)c1cc(S(=O)(=O)NC2CCCCCC2)ccc1F 5.9%
CCOc1ccc(N2CC(NC(=O)/C=C\c3ccc4c(c3)OCO4)CC2=O)cc1 (stereo not given) 0.434%
COc1ccc(-n2ccnc(NCc3ccccc3OC)c2=O)cc1 -19.4%
CNC(=O)c1c(NC(=O)c2ccc(S(=O)(=O)N3CCCCC3)cc2)sc2c1CCC2 2.57%
CSc1nc2c(c(=O)[nH]1)C(c1cccc(F)c1F)CC(=O)N2 (stereo not given) -2.04%
NS(=O)(=O)c1ccc(CCNc2nccn(-c3cccc(C(F)(F)F)c3)c2=O)cc1 3.69%
O=S(=O)(Nc1cc(F)ccc1F)c1ccc2[nH]c3c(c2c1)CCCC3 -4.77%
CC(C)(C)C(=O)Nc1ccc2nc(SCC(=O)N3CCOCC3)sc2c1 -0.713%
COc1cccc(CNC(=O)c2ccc3c(c2)c(C)c(C)n3Cc2ccccc2)c1OC -7.37%
CC(C)c1ccc(NC(=O)CS(=O)(=O)c2cccc3nsnc23)cc1 -3.19%
CCCCN(CCCC)CCNC(=O)Cn1nc(C)n2c(cc3sccc32)c1=O 0.338%
Cc1cc(-c2nc3ncccc3o2)ccc1NC(=O)COc1ccccc1C 0.218%
CCOC(=O)c1ccccc1NC(=O)CSc1ccc(-c2cccs2)nn1 -8.76%
Cc1ccc2occ(CC(=O)N(Cc3ccc(Cl)cc3)C3CCS(=O)(=O)C3)c2c1 (stereo not given) 0.927%
